≈ marks a conversion by molar mass, not a printed value.
Details: buffer; pH 7.4; 200.0 µM
For Nc1c(SCCC(=O)O)ccc2c1C(=O)c1ccccc1C2=O, the solubility kinetic was greater than 49.1 µg/mL.
In the case of Cc1ccc(C(=S)N2CCCCCC2)cc1, the solubility kinetic was 23.4 µg/mL (≈ 100 µM).
Compound Cc1cc(Cl)ccc1C(=O)C1CCCN(C(=O)c2cscn2)C1 (centres undefined) has a solubility kinetic greater than 52.3 µg/mL.
Cc1cccc(C(=O)NCCC(=O)Nc2ccc(C)c(F)c2)c1 showed a solubility kinetic of 2.2 µg/mL (≈ 7 µM).
For O=C(Nc1nc2cc3c(cc2s1)OCCO3)c1ccncc1, the solubility kinetic was 3.6 µg/mL (≈ 11.5 µM).
COc1ccc(CNC(=O)CCC(=O)c2ccccc2)cc1 gave a solubility kinetic greater than 44.6 µg/mL.
CCCC(=O)Nc1ccc2c(c1)nc1n2CCN(C2CCCCC2)C1 showed a solubility kinetic of 41 µg/mL (≈ 120 µM).
With CCOC(=O)C1CCCN(CC(=O)N(C)c2c(N)n(Cc3ccccc3)c(=O)[nH]c2=O)C1 (centres undefined) the solubility kinetic was greater than 66.5 µg/mL.
N#CCOc1ccccc1P(=O)(c1ccccc1)c1ccccc1 showed a solubility kinetic greater than 50 µg/mL.
With O=C(Nc1nc2ccccc2c(=O)s1)c1ccco1 the solubility kinetic was 2.6 µg/mL (≈ 9.55 µM).
With COc1ccc(CNc2ncnc3cc(Cl)ccc23)cc1 the solubility kinetic was 0.6 µg/mL (≈ 2 µM).
CCOC(=O)c1cc(CC)sc1/N=C/C1C(=O)NC(=S)NC1=O gave a solubility kinetic of 5.8 µg/mL (≈ 16.4 µM).
In the case of C=CCN1C2CCCC1CC(NC(=S)Nc1cccc(OC)c1)C2 (centres undefined), the solubility kinetic was greater than 51.8 µg/mL.
Work on Cc1ccc2nc(-c3ccccc3)cc(C(=O)NCC3CCCO3)c2c1 (centres undefined) yielded a solubility kinetic of 15.2 µg/mL (≈ 43.9 µM).
Work on CCCc1c(O)nc(SC2CC(=O)N(c3ccc(C)c(Cl)c3)C2=O)[nH]c1=O (centres undefined) yielded a solubility kinetic of 47 µg/mL (≈ 115 µM).
O=C(c1cccc([N+](=O)[O-])c1)C12CN3CN(CN(C3)C1)C2 gave a solubility kinetic greater than 43.2 µg/mL.
For COc1ccc(Nc2nc(N)nc(CCl)n2)cc1, the solubility kinetic was greater than 39.9 µg/mL.
Work on CCCC1CC(C(=O)NC(C(C)Cl)C2OC(SC)C(O)C(O)C2O)N(C)C1 (centres undefined) yielded a solubility kinetic greater than 63.7 µg/mL.
Work on COc1ccc(OC)c(S(=O)(=O)N2CCN(c3ccc(F)cc3)CC2)c1 yielded a solubility kinetic of 14 µg/mL (≈ 36.8 µM).
